Measured values as given in publication PMC6919601, “Identification of Plasmodium dipeptidyl aminopeptidase allosteric inhibitors by high throughput screening” (PLoS ONE, 2019).
Screen size: about 110,000 compounds; about 230 (0.21%) showed an effect of 50% or more. Some of the results follow.

target: DPAP1 (Plasmodium falciparum, UniProt Q8IIJ9); test: primary screen, percent inhibition; read by cleavage of a fluorogenic dipeptide substrate; higher = more effect of the substance; parameters: species or system P. falciparum D10 trophozoite lysates; single well
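Also: 30 min substrate incubation versus DMSO and 10 µM JCP410 controls.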

DPAP1, sequence (Q8IIJ9 whole entry, looked up): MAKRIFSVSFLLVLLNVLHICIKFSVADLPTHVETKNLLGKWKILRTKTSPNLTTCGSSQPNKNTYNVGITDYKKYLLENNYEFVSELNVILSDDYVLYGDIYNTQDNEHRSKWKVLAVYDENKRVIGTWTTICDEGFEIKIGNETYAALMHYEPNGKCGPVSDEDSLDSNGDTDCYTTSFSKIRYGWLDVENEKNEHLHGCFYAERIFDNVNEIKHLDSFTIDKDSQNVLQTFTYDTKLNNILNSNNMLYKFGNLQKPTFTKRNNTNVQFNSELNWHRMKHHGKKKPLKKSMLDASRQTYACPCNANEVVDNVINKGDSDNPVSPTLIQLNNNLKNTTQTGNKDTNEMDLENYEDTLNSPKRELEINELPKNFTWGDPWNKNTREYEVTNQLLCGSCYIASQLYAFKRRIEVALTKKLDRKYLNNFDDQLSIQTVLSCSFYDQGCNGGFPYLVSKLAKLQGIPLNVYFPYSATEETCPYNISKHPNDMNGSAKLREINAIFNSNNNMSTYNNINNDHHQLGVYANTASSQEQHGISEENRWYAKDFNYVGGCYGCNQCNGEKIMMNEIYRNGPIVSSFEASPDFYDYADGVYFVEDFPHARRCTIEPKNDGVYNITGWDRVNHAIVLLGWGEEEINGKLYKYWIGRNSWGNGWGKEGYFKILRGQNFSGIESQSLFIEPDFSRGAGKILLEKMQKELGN

Structure (SMILES) | % Inhibition @ 10 uM [%]
CCN(CC)C(=O)C1CCCN(Cc2cc(OC)ccc2OC)C1 (stereo not shown) | -0.127
CCN(CC)C(=O)c1sc2nc3c(cc2c1N)N1CCC3CC1 | 1.84
CCC1CCc2nc3sc(C(=O)NC4CCCC4)c(N)c3cc2C1 (stereo not shown) | 1.68
c1ccc(-c2nc(-c3ccco3)n3ccccc23)cc1 | 0.874
COCc1cc(C)nc2sc(C(=O)Nc3cccc(C(F)(F)F)c3)c(N)c12 | 3.8
Cc1cccc(C(=O)NCC2CCCO2)c1 (stereo not shown) | -7.02
CCCNC(=O)CN(c1ccc(C)cc1C)S(C)(=O)=O | 12.8
O=c1cc(CO)occ1OCc1ccccc1 | 3.83
COc1ccc2oc(C)c(C(=O)c3ccccc3)c2c1 | -5
O=C(CCn1c(=O)c2cccn2c2cccnc21)NC1CCCCCC1 | -5.43
CC1CCN(c2ccc(NC(=O)c3cccs3)cc2)CC1 | 0.956
COc1ccc(-c2cc(C(=O)NCc3ccccn3)c3cc(C(C)C)ccc3n2)cc1 | 1.16
COC(=O)c1ccc(C2C3=C(O)CCCC3=Nc3nn(-c4ccccc4)c(O)c32)cc1 (stereo not shown) | 2.46
O=C(Nc1ccc(NC(=O)c2cccnc2)cc1)c1ccc(NC(=O)c2cccnc2)cc1 | -3.01
CCOCCCNS(=O)(=O)c1cc(-c2onc(C)c2C)ccc1OC | -5.09
Cc1[nH]nc(NC(=O)CCCC(=O)c2ccccc2)c1Br | -6.91
COC(=O)/C(C#N)=C/c1ccc(Cl)cc1 | -2.87
O=C(Nc1cccc(Cl)c1)N1CCN(Cc2ccccc2)CC1 | -7.32
O=S(=O)(c1ccc(-c2csc(Nc3ccc(F)cc3)n2)cc1)N1CCCCC1 | -4.08
CCc1nn2c(=O)c(S(=O)(=O)N3CCN(C(=O)c4ccco4)CC3)c(C)nc2s1 | 2.5
COc1cc2nc(N3CCN(C4CCCCC4)CC3)n3nc(-c4ccccc4)nc3c2cc1OC | 2.6
CC1CCC2(NC1)OC1CC3C4CC=C5CC(O)CCC5(C)C4CCC3C1(C)[C@@H]2C (stereo partly shown) | -3.13
CCc1nc2ccc(C(=O)NC(C)Cc3ccco3)cc2nc1CC (stereo not shown) | -0.0309
O=C(CCCN1C(=O)c2ccccc2C1=O)NC(c1ccccc1)C1CCCC1 (stereo not shown) | -13
O=C(Nc1ccc(OC(F)F)c(Cl)c1)C12CC3CC(C1)CC(n1cncn1)(C3)C2 | -2.32

Structure (SMILES) | % Inhibition @ 10 uM [%]
COCCN1C(=O)c2oc3cc(C)c(C)cc3c(=O)c2C1c1ccc(SC)cc1 (stereo not shown) | -1.11
Cc1ccc(-c2cc(C(=O)N3CCN(C(=O)c4ccco4)CC3)[nH]n2)cc1C | 4.6
O=C(COc1cccc(Br)c1)Nc1ccc2c(c1)OCO2 | -7.61
COc1ccc(CNc2nc(-c3ccc(Cl)cc3)nn2C(=O)c2ccco2)cc1 | -6.71
Cc1ccc2nsnc2c1S(=O)(=O)N1CCN(C(=O)C2CCCO2)CC1 (stereo not shown) | 0.163
OCCN1CCN(c2ncccn2)CC1 | -0.267
CN1CCN(C(=O)C23CC4CC(C)(CC(C)(C4)C2)C3)CC1 | -3.42
O=C(/C=C/c1ccccc1Cl)NCc1ccco1 | 1.83
COc1ccc(NC(=O)CN(c2cc(C)ccc2C)S(=O)(=O)c2ccccc2)cc1OC | -7.28
CCc1cccc(C)c1NC(=O)CCCOc1ccccc1OC | -3.92
c1nc(NCc2ccc3c(c2)OCO3)c2nc[nH]c2n1 | -7.15
Cn1c(C(=O)O)c(CNCCc2cccs2)c2ccccc21 | -3.21
O=C(CSCc1cnn(-c2ccccc2)c1-n1cccc1)NC1CCCCCC1 | 3.87
Cc1cc(Cl)ccc1OCC(=O)Nc1ccc(S(=O)(=O)N2CCc3ccccc32)cc1 | -4.01
CCC(Cc1ccccc1)NC(=O)C1CCN(S(=O)(=O)c2c(C)noc2C)CC1 (stereo not shown) | -4.46
Cc1ccc(N(CC(=O)N2CCc3ccccc3C2)S(C)(=O)=O)cc1 | -1.24
O=C(CCCOc1ccc(Cl)cc1Cl)Nc1cc(C(F)(F)F)ccc1Cl | -5.32
COc1ccc(CNCc2c(C(=O)O)c(C)n(Cc3ccc(C)cc3)c2C)cc1OC | -3.67
Cc1nc2c(C)c(-c3ccccc3)nn2c(C)c1Cl | 6.18
COC(=O)C1=C(C)NC(=O)CC1c1ccc(Cl)c(Cl)c1 (stereo not shown) | 5.04
CC12CC1(C)C(=O)N(c1cc(Cl)cc(Cl)c1)C2=O (stereo not shown) | 1.48
CCOC(=O)c1ccc2c(c1)C1CN(C)CCC1N2CC(F)(F)F (stereo not shown) | -1.66
CCc1ccc(C2c3c(-c4ccccc4O)n[nH]c3C(=O)N2CCOC)cc1 (stereo not shown) | 0.366
FC(F)Oc1ccc(C2C=C(c3ccc(Cl)cc3)Nc3nnnn32)cc1 (stereo not shown) | -1.62
COc1cccc(-c2nc(-c3ccc(C)cc3)no2)c1 | -4.03

Structure (SMILES) | % Inhibition @ 10 uM [%]
CC(C)C[C@H](NC(=O)c1cccc(-c2cccnc2)c1)C(=O)NCC#N | -8.81
O=C1c2ccccc2-c2[nH]nc3c(S(=O)(=O)O)ccc1c23 | 2.47
Cc1nnc(-c2ccccc2O)n1-c1ccccc1 | 3.82
COc1ccc(C(=O)N2CCN(Cc3ccc(F)cc3)CC2)cc1OC | -5.4
CC1CCN(c2nc3c(c(=O)n(C)c(=O)n3C)n2CC(=O)c2ccc(Br)cc2)CC1 | -3.09
COc1ccc(-n2c(C)cc(=O)c3c2CC(C)(C)CC3=O)cc1 | -5.23
CCN1CCN(C2=NC(=O)/C(=C/c3ccc(O)cc3)S2)CC1 | -4.4
COc1ccc(-c2cc(C(F)F)n3ncc(C(=O)NC4CCCCC4)c3n2)cc1 | 0.778
CC(Oc1ccc(Cl)cc1Cl)C(=O)Nc1ccc2c(c1)OCCO2 (stereo not shown) | -1.24
CCCCOc1ccc(C(=O)Nc2ccc(N3CCN(C)CC3)cc2)cc1 | 0.52
C=CCN(CC=C)C(=O)/C=C/c1ccccc1 | 0.317
Cc1nn(-c2ccccc2)c2c1C(c1cccc3ccccc13)C(C#N)=C(N)O2 (stereo not shown) | 2.69
O=C(Cc1ccccc1)Nc1cccc(O)c1 | 5.25
Nc1nc(CN2c3cccc4cccc(c34)S2(=O)=O)nc(N2CCCCC2)n1 | 3.24
O=C(NC1CCCCC1)c1ccc(O)nn1 | 2.29
O=C1CS/C(=N\c2ccccc2O)N1c1ccccc1O | -6.79
CCn1c2ccccc2c2cc(NS(=O)(=O)CC)ccc21 | -0.173
CC1=C(c2ccc(C)cc2)S(=O)(=O)N=C1NCCCN1CCc2ccccc2C1 | -1.08
Cc1cccc(C)c1NC(=O)C(C)Sc1ccccc1 (stereo not shown) | 2.38
NC(=O)COc1ccc(-c2noc(COc3ccccc3)n2)cc1 | -8.55
CCN(c1ccccc1)S(=O)(=O)c1ccc(NC(=O)CCc2ccccc2)cc1 | -0.132
CCC(C)Oc1ccc(/C=C2/NC(=O)NC2=O)cc1OC (stereo not shown) | 3.8
CN1CCN(C(=O)c2cc3ccccc3oc2=O)CC1 | -3.27
CSc1ccc(C2C(C#N)=C(N)Oc3[nH]nc(-c4ccc(C)cc4)c32)cc1 (stereo not shown) | 2.38
CCOC(=O)c1c(NC(=O)C(C)Oc2ccc(Cl)c(C)c2)sc(C(C)=O)c1C (stereo not shown) | 11.1

Structure (SMILES) | % Inhibition @ 10 uM [%]
O=C(NCC1CCCO1)c1noc2c1CSc1ccccc1-2 (stereo not shown) | 19.3
CCC/N=c1\c(NC(=O)c2cc(OC)c(OC)c(OC)c2)c(O)oc2ccccc12 | 1.75
CCN(CC)C(=O)Cn1cnc2sc(C(=O)NCc3ccccc3Cl)c(C)c2c1=O | -2.87
CCc1ccc(C2CC(=O)N=C(NC(=O)c3ccc(OC(F)F)cc3)N2)cc1 (stereo not shown) | 0.0654
O=C1CCCC2=C1C(c1ccccc1OCc1ccccc1F)C1=C(O)CCCC1=N2 (stereo not shown) | 0.147
CCO/C(O)=C1\C(C)=NC2=C(C(=O)CCC2)C1c1ccc(OC)c(OC)c1 (stereo not shown) | 3.24
CC(=O)Nc1cccc(N2C(=O)c3ccc(Br)cc3C2=O)c1 | -0.185
Cc1ccc(-n2nnc(-c3nsc(NC(=O)c4ccccc4C)n3)c2C)cc1 | -1.38
COc1cc(OC)c(OC)cc1C=C1C(=O)NC(=S)NC1=O | 0.177
O=C(NCc1noc2ccccc12)Nc1ccccn1 | -6.51
CC1Nc2nc3ccccc3n2C(c2cccc(F)c2)=C1C(=O)c1ccccc1 (stereo not shown) | -2.5
CC(C)(C)c1ccc(C(=O)n2nc(-c3cccnc3)nc2NCc2cccs2)cc1 | 3.81
OC12CCCCC1C1(O)CCCCC1C1(CCCCC1)O2 (stereo not shown) | 3.25
CCCCCn1c(CN2CCN(CCO)CC2)nc2c1c(=O)n(C)c(=O)n2C | -5.1
COc1ccc(OC)c(NC(=O)C(C)Oc2ccc(C)cc2)c1 (stereo not shown) | 4.39
Cn1nc(C(=O)N2CCN(c3ccccn3)CC2)c2c1-c1ccccc1SC2 | 3.3
CCN(CC)S(=O)(=O)c1ccc(S(=O)(=O)N(Cc2ccccn2)Cc2ccco2)cc1 | 2.05
Cc1ccc(SCC(=O)Nc2cccc(C)c2)cc1 | 0.851
CCN(CC)CCSc1nc(O)c(C)c(O)n1 | -7.46
COc1ccc(C2C3=C(Nc4ncnn42)c2ccccc2OC3c2ccccc2OC)cc1 (stereo not shown) | -1.62
CCc1ccccc1N(CC(=O)NC(C)c1ccccc1)S(C)(=O)=O (stereo not shown) | -5.67
O=C(CNS(=O)(=O)c1cc(Cl)ccc1Cl)Nc1ccc2c(c1)OCCO2 | -4.14
COCCCN(Cc1ccco1)C(=O)c1oc(=O)c2ccccc2c1-c1ccccc1 | -6.67
CCOC(=O)C1=C(C)NC(=O)NC1c1c(O)ccc2ccccc12 (stereo not shown) | -2.03
COc1ccc(-c2cc(C(F)F)n3ncc(C(=O)NCc4cnn(C)c4C)c3n2)cc1 | -3.53
